# Laboratory results from article PMC4336329 (PLoS ONE, 2015).
# Hit rate of the full screen: of about 310,000 compounds, about 2,200 (0.71%) showed an effect of 50% or more. The effect is printed as a negative number. This is one part of the list.
# Molecular target: human ether-à-go-go-related gene (hERG) potassium channel (human, UniProt Q12809)
# Test: primary screen, population patch clamp on CHO cells stably expressing hERG
# human ether-à-go-go-related gene (hERG) potassium channel, sequence (Q12809 whole entry, looked up): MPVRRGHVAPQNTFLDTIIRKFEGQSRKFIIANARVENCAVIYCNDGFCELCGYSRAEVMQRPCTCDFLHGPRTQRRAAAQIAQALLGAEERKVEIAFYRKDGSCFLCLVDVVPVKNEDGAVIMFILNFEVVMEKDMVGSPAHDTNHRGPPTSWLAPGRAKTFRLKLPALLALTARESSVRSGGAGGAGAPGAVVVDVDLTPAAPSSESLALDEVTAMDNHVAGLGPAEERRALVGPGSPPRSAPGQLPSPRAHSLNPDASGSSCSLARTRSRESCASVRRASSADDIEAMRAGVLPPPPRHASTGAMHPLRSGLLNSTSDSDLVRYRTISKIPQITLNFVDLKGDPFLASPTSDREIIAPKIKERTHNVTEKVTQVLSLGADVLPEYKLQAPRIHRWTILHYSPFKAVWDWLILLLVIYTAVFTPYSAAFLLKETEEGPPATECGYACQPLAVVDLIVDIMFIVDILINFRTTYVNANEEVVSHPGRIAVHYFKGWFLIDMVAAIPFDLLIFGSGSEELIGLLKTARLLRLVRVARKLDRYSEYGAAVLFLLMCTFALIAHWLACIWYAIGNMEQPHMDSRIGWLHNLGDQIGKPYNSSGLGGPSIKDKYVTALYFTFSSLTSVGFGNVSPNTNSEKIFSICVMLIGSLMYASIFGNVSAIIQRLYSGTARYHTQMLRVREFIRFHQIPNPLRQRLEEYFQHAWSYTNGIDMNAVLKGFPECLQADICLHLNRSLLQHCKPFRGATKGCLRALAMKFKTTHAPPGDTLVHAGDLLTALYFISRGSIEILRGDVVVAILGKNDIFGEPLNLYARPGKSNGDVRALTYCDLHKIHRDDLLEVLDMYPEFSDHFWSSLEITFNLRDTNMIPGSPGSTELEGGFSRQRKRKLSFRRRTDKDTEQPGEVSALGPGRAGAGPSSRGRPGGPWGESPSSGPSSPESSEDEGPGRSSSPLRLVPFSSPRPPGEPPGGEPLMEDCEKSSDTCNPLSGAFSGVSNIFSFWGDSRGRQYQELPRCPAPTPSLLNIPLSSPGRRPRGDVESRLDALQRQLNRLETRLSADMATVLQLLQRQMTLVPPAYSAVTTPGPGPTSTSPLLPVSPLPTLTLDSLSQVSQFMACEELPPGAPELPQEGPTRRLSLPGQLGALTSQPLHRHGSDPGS
row,Compound,"hERG current change (%, negative = inhibition) at 1uM [%]"
1,O=C(CCCN=C1NS(=O)(=O)c2ccccc21)OCC(=O)c1ccc(F)cc1,-3.82
2,Nc1c(C(=O)NC23CC4CC(CC(C4)C2)C3)sc2nc3c(c(C(F)(F)F)c12)CCC3,11.2
3,C=CCN1C(=Nc2cccnc2)SCC1(O)c1ccc(C)cc1 (stereo not shown),15
4,Cc1ccc(NC(=O)/C(=C\c2cccnc2)NC(=O)c2ccco2)cc1,0.391
5,CN(C)S(=O)(=O)c1ccc(N2CCCC2)c(C(=O)NNC(=O)COc2cccc(F)c2)c1,3.37
6,CC(C)(C)C1=Nn2c(nnc2-c2n[nH]c3c2CCC3)SC1,-0.697
7,O=C(NCc1ccc2c(c1)OCO2)c1ccc(S(=O)(=O)NCC2CCCO2)cc1 (stereo not shown),2.21
8,O=C(CSc1nnc(-c2ccc(C(F)(F)F)cn2)o1)Nc1cccc(Cl)c1,9.82
9,Nn1c(SC/C=C/c2ccccc2)nnc1-c1ccncc1,3.32
10,Cc1cc(OCC(=O)Nc2ccc(CN3CCOCC3)cc2)c2c(C)cc(=O)oc2c1,11.8
11,NC(=O)COC(=O)c1cc(-c2cccs2)nn1-c1ccccc1,9.43
12,Cc1cccc(NC(=O)CSCC(=O)N2CCN(C(=O)c3ccco3)CC2)c1,0.116
13,CCN(CC)S(=O)(=O)N1CCC(C(=O)NCC2COc3ccccc3O2)CC1 (stereo not shown),-2.04
14,O=C(Cc1ccccc1[N+](=O)[O-])Nc1ccccc1C(=O)N1CCCC1,7.22
15,O=C(Nc1ccccc1F)Nc1cccc2ccc(O)cc12,11.7
16,C/C(CC(=O)Nc1ccc(N(C)C)cc1)=N\NC(=O)C(=O)NCc1ccccc1,14.8
17,Cc1ccc(NCC(=O)N/N=C/c2c[nH]c3ccccc23)cc1,19.9
18,COc1ccccc1-n1c([S-])c(C(=O)Nc2ccccc2C(F)(F)F)[n+]2ccc(C(=O)NCCO)cc12,12.9
19,O=C(Nc1ccc2c(c1)OCCO2)C1CCN(C(=O)c2ccc([N+](=O)[O-])cc2)CC1,-16.3
20,CC(=O)N1c2ccc(S(=O)(=O)N3CCC(C(=O)Nc4cc(C)cc(C)c4)CC3)cc2CC1C (stereo not shown),8.12
21,Cc1cccc(CSCCNC(=O)c2ccc(CN3CCOCC3)cc2)c1,0.897
22,COc1ccc(/C=N\NC(=O)CCc2c(C)n[nH]c2C)c(OC)c1OC,19.5

row,Compound,"hERG current change (%, negative = inhibition) at 1uM [%]"
1,CCc1cc(=O)oc2cc(OCC=C(C)C)ccc12,9.72
2,COc1ccc2cc(C(=O)C3CCCN(C(=O)/C=C/c4ccccn4)C3)ccc2c1 (stereo not shown),4.07
3,COc1ccc2oc(=O)c(C(=O)N3CCCC3)cc2c1,10.9
4,COc1ccc(-c2nnc(SCC(=O)c3ccc[nH]3)n2-c2ccccc2)cc1,8.98
5,COc1cc(N(C)C)c([N+](=O)[O-])cc1C(=O)NC(C)CNc1ccc([N+](=O)[O-])cc1Cl (stereo not shown),13.4
6,COc1ccc(NC(=O)C(=O)NCC2CCCN2S(=O)(=O)c2ccc(C)cc2)cc1 (stereo not shown),14.9
7,CC(=O)c1ccc(C(=O)N2CCc3c([nH]c4ccccc34)C2c2ccccn2)s1 (stereo not shown),6.34
8,O=c1[nH]c(O)c(/C=C2\C=NN=C2c2ccccc2)c(=O)[nH]1,6.55
9,Cc1onc(-c2ccccc2)c1C(=O)N1CCOCC1,2.95
10,CC1CCN(CCCNC(=O)c2cc3sccc3n2C)CC1,-23.6
11,CC(C)C12CN3CCN(CC(C3)C1O)C2 (stereo not shown),5.46
12,Cc1ccc(NC(=O)CN(C)CCOc2ccccc2)c([N+](=O)[O-])c1,15.7
13,C/C=C(\C)C(=O)NCCN1C2=NC[C@H](Cc3ccccc3)N2C[C@H]1Cc1ccc(O)cc1,6.68
14,CCCC(=O)Nc1nnc(SCC(=O)NC2CC2)s1,16.5
15,COc1cccc(CN(C)C(=O)c2cccc(OC3CCN(C4CCCC4)CC3)c2)c1,-0.752
16,CN(C)/C=C1/OC(=O)C(C#N)=C1c1ccc(Cl)cc1,10.7
17,COc1cc(NC(=O)CCN2CCN(CCO)CC2)cc(OC)c1,7.44
18,COc1cccc(/C=C/C(=O)Nc2ccc(OC)nc2)c1,-0.476
19,Cc1cccc(-n2cc(CNCCc3nc(C)cc(C)n3)c(-c3cccc(F)c3)n2)c1,3.59
20,O=C(CCC(=O)N1CCSc2ccccc21)NCc1cccc(Br)c1,0.3
21,C=CCN(c1ccc(C(=O)NCCSc2ccccc2)cc1)S(C)(=O)=O,8.81
22,Cn1nccc1NC(=O)c1nccnc1C(=O)O,8.5

row,Compound,"hERG current change (%, negative = inhibition) at 1uM [%]"
1,Cc1occc1C(=O)NCc1cccs1,-9.01
2,CC(C)n1ncc2c(C(=O)Nc3ccc(CC#N)cc3)cc(C3CC3)nc21,8.76
3,COc1cc(/C=N/NC(=O)CCn2nnc3ccccc32)ccc1O,14.9
4,COc1ccccc1NC(=O)c1cnc(SCC(=O)NCC2CCCO2)n(C)c1=O (stereo not shown),-0.498
5,Cc1ccsc1CNCCc1ccc(F)cc1,5.17
6,COc1ccc(CN2CCNC(=O)C2CC(=O)NCc2cn[nH]c2-c2ccccc2)c(F)c1 (stereo not shown),-5.27
7,CCCCOc1ccc(C(=O)NCC(=O)OC2CCOC2=O)cc1 (stereo not shown),5.23
8,CCOC(=O)c1c(NC(=O)CN2C(=O)NC3(CCCC3)C2=O)sc(C)c1CC,0.638
9,CSc1ncccc1C(=O)NC1CCN(Cc2ccccc2)CC1,3.68
10,COC(=O)C1CSC(C(=O)OC)N1C(=O)Nc1ccc(Cl)cc1 (stereo not shown),10.2
11,Cc1ccccc1OCC(=O)N(Cc1ccc(N(C)C)cc1)C1CCS(=O)(=O)C1 (stereo not shown),7.63
12,COc1ccc(C2=NN(S(=O)(=O)c3ccccc3)C(c3ccccc3)C2)cc1 (stereo not shown),16.2
13,CN(Cc1cccnc1)Cc1cn[nH]c1-c1ccc(-c2ccccc2)cc1,-2.25
14,Nc1c(O)ccc2c1C(=O)c1ccccc1C2=O,10.5
15,Nn1c(COc2ccc(Cl)cc2)n[nH]c1=S,12.6
16,COC(=O)c1ccc2nc(-c3ccc(S(C)(=O)=O)cc3)cn2c1,-5.02
17,COCCNC(=S)NC(=O)c1ccc(C(C)(C)C)cc1,1.39
18,S=c1[nH]cc(-c2ccc(Cl)cc2)n1Cc1ccccc1,7.63
19,Cc1sc2nc(SCC(=O)N3CCOCC3)[nH]c(=O)c2c1-c1ccccc1,6.6
20,CCOC(=O)c1cc2c(C(F)(F)F)cc(-c3cccnc3)nc2o1,0.0731
21,O=C1N(c2cccc(Cl)c2)C(c2ccccc2)N2CCCN12 (stereo not shown),5.85
22,O=C(CN1CCC(Cc2ccccc2)CC1)N1CCc2ccccc2C1,-62.2

row,Compound,"hERG current change (%, negative = inhibition) at 1uM [%]"
1,CC(=O)N1c2ccc(Cl)cc2C2C=CCC2C1c1cccc2ccccc12 (stereo not shown),14.1
2,COc1ccc(C(N)=S)cc1,5.32
3,Cn1c(=O)c(C(=O)CCl)c(N)n(Cc2ccccc2)c1=O,1.63
4,CN(C)c1ccc(/C=[N+](\[O-])C2SC(=S)N(C)C2(C)C)cc1 (stereo not shown),7.33
5,Cn1c(=O)[nH]c(=O)c2c1nc(Br)n2CCOc1ccccc1,4.72
6,O=C(Cc1cccs1)N1CCCC(c2nc3c(nnn3Cc3ccc(F)cc3)c(=O)[nH]2)C1 (stereo not shown),-3.78
7,Cc1ccc(-n2nnnc2SCC(=O)N(CC(C)C)c2c(N)n(CC(C)C)c(=O)[nH]c2=O)cc1,10.9
8,CCCN(CC(=O)Nc1ccccc1C)C(=O)c1ccc(N2CCCC2)c([N+](=O)[O-])c1,3.26
9,COc1ccc(CCC(C)Nc2ccc(F)cc2)cc1 (stereo not shown),3.67
10,CCOC(=O)c1ccc(-n2c(CCC(=O)O)ccc2-c2ccc(F)cc2)cc1,5.7
11,O=C(/C=C/c1ccc2c(c1)OCO2)Nc1cccnc1,-1.79
12,CC(NCCC(Cc1ccccc1)c1ccco1)c1ccccc1 (stereo not shown),8.97
13,CC1CCCCN1C(=O)CN1C(=O)CN(C)C(=O)c2ccccc21 (stereo not shown),6.16
14,Cc1nn(Cc2ccccc2)c(N)c1-c1ccccc1,-5
15,COc1ccccc1C(=O)Nc1ccc(S(=O)(=O)N2CCC(C)CC2)cc1,8.51
16,CC(C)Cc1nc(N2CCN(C(=O)c3ccccc3)CC2)c(C#N)c2c1CCC2,-5.73
17,CC(=O)c1cccc(-n2nnnc2SCC(=O)Nc2cccc(NC(=O)c3ccco3)c2)c1,-3.09
18,CC(=O)Nc1ccc(S(=O)(=O)Nc2nc3ccccc3nc2Nc2ccccc2)cc1,5.59
19,NC(=O)CCN1CCCCC1,7.47
20,C/C(N)=C(/C#N)C(=O)COC(=O)c1cccc(O)c1,-0.273
21,CS(=O)(=O)Cc1cccc(C(=O)NN(c2ccccc2)c2ccccc2)c1,12.9
22,Nn1cc(-c2ccccc2)nc1SCC(=O)Nc1ccc(S(N)(=O)=O)cc1,5.21
